The results in this text go back to the supplement of paper PMC8948288.

Shown are siRNA guide strands that differ only in the seed, positions 2 to 7.

The test system of series [1] is GL261. Description: cell viability relative to siNT1 (ATP content); H4 human neuroglioma and GL261 mouse glioma; higher = less toxic. Conditions: siRNA concentration 25 nM; 96 h; mouse.
Series [2] has as its system H4. The series is described as above. Conditions: siRNA concentration 10 nM; 96 h; human.

The cell viability is a read-out of living cells in per cent, often relative to untreated cells.
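Also: cells reverse transfected with siRNA duplexes via lipid reagent, ATP read by luminescence, triplicate wells, values scaled to mean viability with non-targeting control siNT1.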

For UUACGUGACAUGUAAACCA, the figures for the cell viability in series [1] and in series [2] were 71.6% and 98.9%, respectively.
Turning to UUACGUUACAUGUAAACCA, the values for the cell viability in series [1] and in series [2] were 56.4% and 104%, respectively.
For UUACUAAACAUGUAAACCA the same measures were 60.8% and 85.5%.
For UUACUACACAUGUAAACCA the same measures were 59.1% and 57.3%.
As to UUACUAGACAUGUAAACCA, the cell viability in series [1] was 69.3%; in series [2] it was 74.6%.
For UUACUAUACAUGUAAACCA the same measures were 49% and 80.4%.
Regarding UUACUCAACAUGUAAACCA, the cell viability in series [1] amounted to 65.8%; in series [2], 69.9%.
Regarding UUACUCCACAUGUAAACCA, the cell viability in series [1] was found to be 39.2%; in series [2], 12.9%.
For UUACUCGACAUGUAAACCA the same measures were 81.8% and 71.9%.
With UUACUCUACAUGUAAACCA, the cell viability in series [1] amounted to 44.7%; in series [2] it was 54%.
For UUACUGAACAUGUAAACCA the same measures were 67.5% and 95.7%.
For UUACUGCACAUGUAAACCA, the cell viability in series [1] is 31.9%; in series [2] it was 58.6%.
Consider UUACUGGACAUGUAAACCA, for which the cell viability in series [1] amounted to 41.2%; in series [2], 55%.
For UUACUGUACAUGUAAACCA the same measures were 45.8% and 60.5%.
For the sequence UUACUUAACAUGUAAACCA, the cell viability in series [1] was 72.3%; in series [2], 70.3%.
For UUACUUCACAUGUAAACCA the same measures were 51.4% and 46.2%.
Regarding UUACUUGACAUGUAAACCA, the results for the cell viability in series [1] and in series [2] were 59.5% and 80.9%, respectively.
For UUACUUUACAUGUAAACCA the same measures were 75.7% and 51%.
On to UUAGAAAACAUGUAAACCA, for which the cell viability in series [1] came out at 90.1%; in series [2], 105%.
Consider UUAGAACACAUGUAAACCA, for which the cell viability was found to be 64.1% in series [1] and 65.2% in series [2].
For the sequence UUAGAAGACAUGUAAACCA, the cell viability in series [1] amounted to 82.5%; in series [2], 93.2%.
For UUAGAAUACAUGUAAACCA the same measures were 56.5% and 96.1%.
In the case of UUAGACAACAUGUAAACCA, the cell viability was 74.3% in series [1] and 88.9% in series [2].
For UUAGACCACAUGUAAACCA, the cell viability in series [1] was 37.9%; in series [2], 75.5%.
Take UUAGACGACAUGUAAACCA: the results for the cell viability in series [1] and in series [2] were 69.9% and 73.1%, respectively.
Take UUAGACUACAUGUAAACCA: the figures for the cell viability in series [1] and in series [2] were 85.7% and 78.1%, respectively.
Take UUAGAGAACAUGUAAACCA: the cell viability worked out at 40.5% in series [1] and 85.9% in series [2].
For UUAGAGCACAUGUAAACCA the same measures were 51.9% and 45.8%.
As to UUAGAGGACAUGUAAACCA, the cell viability in series [1] stood at 25.5%; in series [2], 62.5%.
With UUAGAGUACAUGUAAACCA, the figures for the cell viability in series [1] and in series [2] were 31.2% and 59.5%, respectively.
As for UUAGAUAACAUGUAAACCA, the results for the cell viability in series [1] and in series [2] were 52.6% and 112%, respectively.
For UUAGAUCACAUGUAAACCA the same measures were 33% and 90.7%.
For UUAGAUGACAUGUAAACCA the same measures were 44% and 87.1%.
For UUAGAUUACAUGUAAACCA the same measures were 60.1% and 78.8%.
UUAGCAAACAUGUAAACCA: the cell viability in series [1] is 56.2%; in series [2], 88.6%.
For UUAGCACACAUGUAAACCA the same measures were 30.7% and 66.2%.
For UUAGCAGACAUGUAAACCA the same measures were 44.4% and 79.9%.
With UUAGCAUACAUGUAAACCA, the cell viability in series [1] was 42.3%; in series [2], 81.2%.
On to UUAGCCAACAUGUAAACCA, for which the cell viability in series [1] turned out to be 45.6%; in series [2], 71.6%.
With UUAGCCCACAUGUAAACCA, the results for the cell viability in series [1] and in series [2] were 28.5% and 35.5%, respectively.
For UUAGCCGACAUGUAAACCA the same measures were 59.4% and 71.4%.
For the sequence UUAGCCUACAUGUAAACCA, the cell viability came to 33.3% in series [1] and 22.5% in series [2].
For UUAGCGAACAUGUAAACCA the same measures were 82.6% and 85.2%.
For UUAGCGCACAUGUAAACCA the same measures were 65.7% and 85.4%.
Turning to UUAGCGGACAUGUAAACCA, the cell viability was found to be 65% in series [1] and 40.5% in series [2].
